According to PubChem BioAssay AID1345082 (National Center for Advancing Translational Sciences (NCATS), 2018):
Hit rate of the full screen: of about 94,000 compounds, about 4,000 (4.3%) were called active. This list was built around the results that the source calls inconclusive (neither active nor inactive); the mix of calls is not that of the screen. Calls follow the shape of the dose curve; as a rule, active = well fitted inhibition curve with a large enough effect; inconclusive = small, poorly fitted or top-dose-only effect; inactive = no such curve, though single readings can be large or run the other way. Where the call is inconclusive, the potency comes from a doubtful curve fit.

Test: Cytotoxic Profiling in NIH 3T3 Cell Line of Diverse Libraries Using Quantitative High-Throughput Screening; also: nearly all actives have a fitted effect of over 55% in size
Conditions: NIH 3T3 viability, CellTiter-Glo ATP luminescence, 48-72 h; series mostly up to 96.7 µM
Outline: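 Cytotoxicity is measured as loss of cellular ATP: NIH 3T3 cells (400/well) are exposed to compound for 48 or 72 hr at 37 °C, then CellTiter-Glo luminescence is imaged after 10 min at room temperature.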
Potency is read from the fitted curve at half-maximal effect; tags tell the direction and shape of the fitted curve.

| SMILES | Potency |
| --- | --- |
| O=[S+]([O-])(Nc1ccccc1)c1ccc2c(c1)OCCN(Cc1cccs1)C2 | inconclusive: 56.2 µM [inhibitor, partial curve, poor fit] |
| COc1ccc(NC(=O)C2CCCN(c3ccnc4ccnn34)C2)cc1 (stereo not given) | inconclusive: 31.6 µM [inhibitor, full curve] |
| O=C1CCCN1CCCN1C(=O)[C@@H]2C[C@@H](O)CN2C2(CN(Cc3cccc(OC(F)(F)F)c3)C2)C1=O | inactive |
| O=C(Nc1ccc2c(c1)OCCO2)N1CCC(c2nc(C3CCOCC3)no2)CC1 | inactive |
| Fc1ccc(OC2CNC2)cc1 | inactive |
| Cn1cnc(S(=O)(=O)N2CCC3(CC2)N(Cc2cccc(F)c2)C(=O)CS3=O)c1 (stereo not given) | inactive |
| CCC1(N2CCN(S(=O)(=O)c3ccc4c(c3)CCCC4)CC2)CCN(C(=O)NC)C1 (stereo not given) | inactive |
| O=C(CC1CCCCN(Cc2ccccc2)C1=O)NCc1ccc(F)cc1F (stereo not given) | inconclusive: 50.1 µM [inhibitor, partial curve, poor fit] |
| Cc1cc(Cl)ccc1-c1ccccc1C=O | active: 112 µM |
| CN(C)[S+](=O)([O-])c1ccc2c(c1)OCCN(Cc1ccccc1Cl)C2 | active: 56.2 µM |
| O=C(c1ccccc1)N1CCC2(CC1)CCN(Cc1cccs1)c1ccccc1O2 | inconclusive: 44.7 µM [inhibitor, partial curve, poor fit] |
| COc1ccccc1-c1cc(C(=O)Nc2ccc(Cl)cc2)c2cnn(C)c2n1 | inconclusive: 17.8 µM [inhibitor, full curve, poor fit] |
| CC(C)CNc1ccc2c(n1)C(C)(C(=O)NCc1cnccn1)CN(Cc1ccccc1)C2 (stereo not given) | inconclusive: 44.7 µM [inhibitor, partial curve, poor fit] |
| c1ccc(CN(Cc2ccccn2)[C@H]2C[C@H]3CCOC[C@@]3(c3ccccc3)C2)cc1 | inconclusive: 50.1 µM [inhibitor, partial curve, poor fit] |
| CCn1c(=O)c2ccnn2c2ccc(C(=O)NCCCOC(C)C)cc21 | inactive |
| COCc1cccc(-c2n[nH]c3c2CC(=O)N(CCc2ccncc2)C3)c1 | inconclusive: 89.1 µM [inhibitor, partial curve, poor fit] |
| NC(=O)[C@H](Cc1cccs1)NC(=O)C1=C[C@@H](NC(=O)NC2CCCCC2)[C@@H](O)[C@H](O)C1 | inactive |
| COCCN1CCCC2(CCN(c3ccc4ccccc4n3)C2)C1=O (stereo not given) | inconclusive: 44.7 µM [inhibitor, partial curve, poor fit] |
| COc1ccccc1CNC[C@H]1Cn2cc(-c3ccc(C)cc3)nc2CO1 | active: 100 µM |
| CC(C)C[C@@H]1N[C@H](C(=O)NCCN(C)C)Cc2cn(CC3CC3)c3cccc1c23 | active: 31.6 µM |
| O=C(CC1CCCC1)N1CCCCCC1CN1CCCC1 (stereo not given) | inconclusive: 50.1 µM [inhibitor, partial curve, poor fit] |
| CCCNC(=O)N(C1CCOCC1)C1CCN(C(=O)c2cccs2)CC1 | inactive |

| SMILES | Potency |
| --- | --- |
| CCC1(C(=O)NCc2cccc(F)c2)CCCCC(=O)N1 (stereo not given) | inactive |
| Cc1nn(-c2ccccc2)c2c1C(C(C)C)N(C1CCN(C(=O)c3ccc(Cl)cc3)CC1)C2=O (stereo not given) | inconclusive: 28.2 µM [inhibitor, full curve] |
| CC1CCN(C(=O)C[C@@H]2c3nc(NC(=O)c4ccco4)sc3C[C@@H]3[C@](C)(CO)[C@H](O)CC[C@]32C)CC1 | inconclusive: 44.7 µM [inhibitor, partial curve, poor fit] |
| COc1cccc(CC(=O)NCCn2ccn3nc(-c4ccc(C)c(C)c4)cc3c2=O)c1 | inconclusive: 50.1 µM [inhibitor, partial curve, poor fit] |
| COc1ccc(NC(=O)CN2C(=O)COc3ccc(C(=O)COc4cccc(F)c4)cc32)cc1 | active: 39.8 µM |
| CC(=O)Nc1cccc(-c2cnc3n[nH]c(-c4sccc4C)c3n2)c1 | inconclusive: 31.6 µM [inhibitor, partial curve, poor fit] |
| COCC(=O)N1CCN(Cc2ccccc2-c2cccnc2)CC1 | inactive |
| O=C1CC2(CCN(C(=O)C3CCCN(C(=O)C4CCCC4)C3)CC2)Oc2ccccc2N1 (stereo not given) | inactive |
| COc1cc(Cl)ccc1C(=O)NC1CCN(c2cc(-c3ccc(F)cc3)[nH]n2)CC1 | active: 35.5 µM |
| O=C(c1ccccc1F)N1CC(Oc2ccc(F)cc2F)C1 | inactive |
| CN1c2cc(C(=O)Nc3ccc(Br)cc3)ccc2C(=O)N2CCCCCC21 (stereo not given) | inconclusive: 44.7 µM [inhibitor, partial curve, poor fit] |
| Cn1nc(OC(C)(C)C(=O)NCCOc2ccccc2)c2cc(CN3CCCC3)ccc21 | inconclusive: 112 µM [inhibitor, single point] |
| Cc1cc(=O)n(CC(=O)Nc2ccc(C(C)C)cc2)c(N2CCc3ccccc3C2)n1 | active: 25.1 µM |
| Cc1cccc(-c2cc(C3CCN(C(=O)Nc4ccccc4Cl)CC3)[nH]n2)c1 | inconclusive: 56.2 µM [inhibitor, partial curve, poor fit] |
| COc1ccc(-c2ccc3c(c2)C(=O)N2CC[C@H](NC(=O)C4CCCC4)[C@H]2C(=O)N3)cc1 | inconclusive: 126 µM [inhibitor, single point] |
| O=C(c1cc(C2CC2)nc2onc(C3CCCN3)c12)N1CCCCC1 (stereo not given) | inconclusive: 50.1 µM [inhibitor, partial curve, poor fit] |
| CCc1nc2c(c(-c3ccc(Cl)cc3)n1)CN(Cc1ccc(C)cc1)CC2 | active: 25.1 µM |
| COCCNC(=O)[C@@H]1CCC[C@@H](NCc2cccnc2)CN(C)C(=O)C1 | inactive |
| COCCC(=O)N1CCOc2ccc(CN3CCc4ccccc4C3)cc2C1 | inactive |
| CCOc1ccc(CN2CCc3nn(C)c(=O)n3CC2)cc1OC | inactive |
| Cc1noc2c(NCc3cnccn3)cc(-c3ccc(Cl)cc3)nc12 | inconclusive: 17.8 µM [inhibitor, full curve, poor fit] |
| O=C(c1cccc(Cl)c1)N1CCC2(CC1)Cc1ccccc1NC2=O | inconclusive: 39.8 µM [inhibitor, partial curve, poor fit] |

| SMILES | Potency |
| --- | --- |
| C=CCC1(CO)CCCN(CCOc2ccc(C)cc2Cl)C1 (stereo not given) | inconclusive: 56.2 µM [inhibitor, partial curve, poor fit] |
| CC(C)Oc1ccc(C2(C(=O)N3C[C@@H](C)[C@](O)(C4CC4)C3)CCCC2)cc1 | inconclusive: 44.7 µM [inhibitor, partial curve, poor fit] |
| CCOC(=O)[C@@H]1[C@@H](OC)C(=O)N(Cc2ccccc2)C12CCN(C(=O)c1ccc(F)cc1)CC2 | inconclusive: 70.8 µM [inhibitor, single point] |
| COc1cccc(-c2cc(-c3c(C)noc3C)cc3c2C(=O)N(C)C3)c1OC | inconclusive: 3.98 µM [inhibitor, full curve] |
| Cc1noc(C)c1S(=O)(=O)N1CCn2ncc(C(=O)Nc3ccc(Cl)cc3Cl)c2C1 | inconclusive: 28.2 µM [inhibitor, partial curve, poor fit] |
| Cc1ccc(Cn2c(C3CCN(C(=O)c4ccc(C(C)(C)C)cc4)CC3)n[nH]c2=O)cc1 | active: 28.2 µM |
| CN(C(=O)c1ccc(F)cc1)C1CCCc2ccccc21 (stereo not given) | inconclusive: 56.2 µM [inhibitor, partial curve, poor fit] |
| CCCCCC(=O)N1C[C@@H](C(N)=O)[C@@H]2Oc3ccc(Cl)cc3[C@@H]21 | inactive |
| O=C(Nc1cccc(Cl)c1)N1CCOC(CN(CC2CC2)C(=O)c2cccc(F)c2)C1 (stereo not given) | inconclusive: 50.1 µM [inhibitor, partial curve, poor fit] |
| COc1cccc(C(=O)N2CCN(CCCn3nc4n(c3=O)CCCC4)CC2)c1 | inactive |
| O=C(Cc1ccc(N2CCC(NCCc3ccc(C(F)(F)F)cc3)CC2)cc1)NCc1ccccn1 | inconclusive: 50.1 µM [inhibitor, partial curve, poor fit] |
| O=C(c1ccccc1F)N1CCC(n2cc(-c3nc(-c4ccccc4)no3)nn2)CC1 | inconclusive: 50.1 µM [inhibitor, partial curve, poor fit] |
| COc1cc(SC)ccc1C(=O)N[C@H]1CCN2C(=O)N(c3ccc(C)cc3)C(=O)[C@@H]2C1 | inactive |
| COc1ccc(-c2cccc(C(=O)N3CCC(NC(=O)C(C)(C)C)CC3)c2)nn1 | inactive |
| O=C(NCc1cccs1)c1cc(-c2cc(Cl)cc(Cl)c2)c2cccn2n1 | inconclusive: 35.5 µM [inhibitor, partial curve] |
| CN(C)S(=O)(=O)N1CCC2(CCCN(Cc3ccc(F)c(F)c3)C2=O)C1 (stereo not given) | inconclusive: 79.4 µM [inhibitor, partial curve, poor fit] |
| CC(C)c1nc2nccc(-c3ccsc3)n2n1 | inconclusive: 50.1 µM [inhibitor, partial curve, poor fit] |
| CC(C)C(=O)N1CCCCCCNC(=O)[C@@H]2C[C@@H](C(=O)N3CCN(c4ccccn4)CC3)C[C@@H]21 | inconclusive: 50.1 µM [inhibitor, partial curve, poor fit] |
| COCc1ccc2c(c1)c(OC(C)(C)C(=O)NC1CC1)nn2Cc1ccccc1 | inconclusive: 89.1 µM [inhibitor, partial curve] |
| COc1ccc2cc(C(=O)N3CCC4(CC3)CC(Cc3nc(C)no3)CCO4)[nH]c2c1 (stereo not given) | inconclusive: 39.8 µM [inhibitor, partial curve, poor fit] |
| CC(C)CNC(=O)N1CCCCCCN(C)C(=O)[C@@H]2CCC[C@@H]21 | inactive |
